# Test results from the supplement of paper PMC11417369.
# The other results are listed elsewhere or left out.
# Tested on: PfSIP2 AP2 domain 1 (GST-tagged)
# Experiment: gcPBM binding intensity (ln(normalized median fluorescence intensity)); higher = stronger DNA binding
# In short: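 Probes on an Agilent 4 × 180k array were primer-extended, double-stranded and 36 bp long, taken from intergenic genomic regions, with negative controls added. GST-tagged P. falciparum DNA-binding domains from E. coli, about 25 μg on average, were applied to the array for 1 h in 1× PBS containing 1% milk, 0.2 mg/ml BSA, 0.5% salmon testes DNA and 0.03% Triton X-100. Binding intensity, obtained after Alexa488 anti-GST antibody detection and a 488 nm scan, is the highest Masliner-normalised natural-log median intensity across replicate spots of either probe orientation.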
row,Sequence,gcPBM binding intensity (ln)
1,TATATATATATATGTATATATGTATATCTATATTTA [CACACA_negctrl_site131],9.31
2,TGGATTCGTATATGTAGTACTATTTATATGTGATTT [XGTACX_site1581],7.12
3,AATATATACCAACATAAATATATATATATATATATA [TGCATGCA_negctrl_site334],9.89
4,TAATAAATATATAATTGTACTTAAAAGAATATAAAA [XGTACX_site2928],6.96
5,AAGTGTATATAAAAATGTACATATTTCGATTTAAAT [XGTACX_site4161],7.11
6,TCACATATTATCTTTACACACTATATATAAGTTTTA [CACACA_site2790],7.23
7,TCATGTTTTACAAAAACACACAAATGAATATAAACC [CACACA_site1161],7.3
8,TGTACATAAATCTAATTATTATATGTGTATATATAT [CACACA_negctrl_site1582],7.81
9,AGTACAGACATAGACACACACACACCCATAAAAAAA [CACACA_site1515],7.24
10,TTAAGATAGCAAATATGTACACATTTGTAAAATAAA [XGTACX_site4837],7.25
11,TAAAAATTCAATTGCACACGCACATATTTTAATAAG [CACACA_site2014],7.12
12,AATATAATAATAAAAACACACACGTTGATTGTATTA [CACACA_site2381],6.86
13,CGTATGCAAGGAACCACACACACACCCATAAATGTA [CACACA_site749],7.11
14,AAAAAATAGACATATACACACATATGTATTTATAAT [CACACA_site5225],6.97
15,TTAAAAATAAAAAATACACACTCTAGTCCATGTAAC [CACACA_site3640],6.78
16,ATTTCATATAGTGTAGTGCAATTTTAAGCATCAAGG,8.3
17,ATGTCATTATATACATGTACGCATATCTGTTTATCC [XGTACX_site3947],7.09
18,CCTATAATAAATAATACACACATATTGTAAATATAT [CACACA_site7496],6.94
19,TTTTTTTTTATAAGGTGTACGTAAAATGTGTAGGTC [XGTACX_site3585],8.36

row,Sequence,gcPBM binding intensity (ln)
1,TAAGTGCTTTTCAACTGTACCTTCCATTTATTTATT [XGTACX_site8589],7.06
2,TCTTGACTAAATATATGTACATATATTTTAATAATA [XGTACX_site701],7.09
3,ACTACATAATATTTACGTACCTAAAAAATTCTTATA [XGTACX_site509],7.19
4,TTCTTATTTTATATTTCACACATTTTTACTATACTT [CACACA_site5817],7.29
5,GTATTCAAAAGTGAAACATGCAATAATATATATATA [TGCATGCA_site617],8.83
6,AAAAAAAAAAAAAATACACACGTGAATGTATTGTTT [CACACA_site4856],7.17
7,AAGGAGCCTATGAACACACACATGTACCTATATTAA [CACACA_site7838],6.87
8,AGAATGAAATAATATACACACAAAGGAAAAATGTAA [CACACA_site3911],6.76
9,ATACGTATTTATTTCACACACGTTAAAAAAATAAAA [CACACA_site6027],7.08
10,ATAATTTTTATTTGTACACACATACAGATATATTAT [CACACA_site4701],7.08
11,GATATGTACTAATACACACACATATATATATATATA [CACACA_site1022],9.35
12,GATATAGATATTAATTGTACATATTATTTATTGTTA [XGTACX_site846],7.02
13,TTCTAAAAAGGGTGTACACAAACGAATGGAAAATAA [CACACA_site5483],8.11
14,CACACTAAAAGACACACACACACACGCATATAAATA [CACACA_site7874],7.43
15,AAATATATATATATATGTACACACACACATATAAAT [XGTACX_site847],7.43
16,ATTAAACATACATATACACACACACCCACCCACCCA [CACACA_site8057],7.76
17,TAGTGTAAAAAATACGCATGTGTACAAATATAATAA [TGCATGCA_site498],7.15
18,TAAAGGTGTAAAACTGCATGCTGGAGAAAAGTAAAA [TGCATGCA_site591],6.96
19,AATAATACGTTAAATGTTCTTACAAGTTGGTTTCAT [CACACA_negctrl_site1029],6.87

row,Sequence,gcPBM binding intensity (ln)
1,ATTATATAATATAATGCATGTGTTAATGAAAAATCT [TGCATGCA_site426],6.9
2,AAAAAAAAATTTGTATCACACACGTATTATAAAAAA [CACACA_site6],6.91
3,AAAAAAAAAAAAAAGTGTACCTTATTATACTTTAAT [XGTACX_site8439],7.19
4,TTATGATAACTTTGCACACACTTAGGAAAAGTTATG [CACACA_site6836],7.06
5,ATCTTTATTTTTAGCGCACACATAAAATAATAATAA [CACACA_site3458],7.75
6,CAAAGCATTTTATCTACACACATATATAAATAAATA [CACACA_site7500],6.88
7,TATTTTAACTTTTTTTCCTTTATTCATTTTTTTTTC [CACACA_negctrl_site971],6.75
8,TGATGCAAGATATATACACACATATAAATATAAATA [CACACA_site7429],6.98
9,TTTTTTTTTTTATGTGCACACAAAAGATGCTTATAT [CACACA_site2347],8.73
10,TATATATATATAATATGTACATATATATATTCTTAA [XGTACX_site6154],8.78
11,ATAATTCATGTTTAGTGTACAAAAAATTAAAGCAAC [XGTACX_site8891],7.49
12,AAATAATTTATATGTAGTACATGTTGTAGATAATTT [XGTACX_site1031],7.03
13,TGATTATATAAAAAAAAGAAAAAAAAAAAAAAAAAA [CACACA_negctrl_site819],7.08
14,ATGCATCATTTATTTGCACACCTATTATATACTTTT [CACACA_site2097],7.22
15,ATATGTACATATCTCATGCACTTAACAAAAAAAAAG [GTGCAC_site9898],8.42
16,TAAAGAGTCATGTGGTGTACCTGCTTCACCACATAT [XGTACX_site1288],6.89
17,TATATATTCATAAAGTGTACATGTTTATATATATAT [XGTACX_site7585],8.48
18,TTATTTTTAATATCGGTGCAACAAAAAGGAAAAGAT [GTGCAC_site9482],9.64
19,TATGTATAGATATATACACACTTCTGTGATACGAAA [CACACA_site7003],6.75
